Experimental data published in a compilation of properties of binary mixtures (doi:10.1016/j.molliq.2021.115962).
Some of these densities may be calculated back from excess volumes.

Assay: xn = mol fraction of the nth substance listed
Details: 100 kPa

O + CCCCCC[n+]1ccn(C)c1.[Br-]
Details	mass density [kg/m3]
308.15 K, x2 = 0	993.9

O + CCCC[n+]1cccc(C)c1.F[B-](F)(F)F
Details	mass density [kg/m3]
308.15 K, x2 = 0	993.9

CCCCCC[n+]1ccn(C)c1.[Br-] + O
mass density [kg/m3]
Details	x1 = 0.0044	x1 = 0.0059	x1 = 0.0075	x1 = 0.0106	x1 = 0.0134	x1 = 0.0173	x1 = 0.0226	x1 = 0.0295	x1 = 0.0367	x1 = 1
293.15 K	1009.4	1013.1	1016.9	1023.9	1030.1	–	–	–	–	1230
298.15 K	–	1011.6	–	–	1028.2	1036	1045.6	1057	–	1226.5
303.15 K	–	1009.9	1013.5	1020.2	1026.1	1033.7	1043.4	1054.4	1064.7	1222.9
308.15 K	–	1008	–	1018.1	1023.9	1031.4	1040.7	–	1061.8	1219.2

CCCC[n+]1cccc(C)c1.F[B-](F)(F)F + O
mass density [kg/m3]
Details	293.15 K	298.15 K	303.15 K	308.15 K
x1 = 0.0001	998.4	997.2	–	–
x1 = 0.0002	998.6	997.4	995.9	–
x1 = 0.0003	998.9	997.7	996.2	994.5
x1 = 0.0005	999.2	998	–	994.8
x1 = 0.0007	–	998.4	–	995.2
x1 = 0.0009	1000	998.8	997.3	–
x1 = 0.0011	1000.5	999.2	997.8	996.1
x1 = 0.0016	1001.5	1000.2	998.6	996.9
x1 = 0.0018	–	1000.5	–	–
x1 = 0.0021	1002.4	1001.2	–	997.8
x1 = 0.0024	–	1001.7	–	–
x1 = 0.0025	1003.2	–	1000.2	998.5
x1 = 0.0034	1005	1003.6	1002	1000.2
x1 = 0.0038	1005.8	1004.4	–	1000.9
x1 = 0.004	–	1004.7	–	–
x1 = 0.0043	–	1005.2	1003.6	–
x1 = 0.0044	–	1005.5	–	–
x1 = 0.0049	–	1006.2	–	–
x1 = 0.0055	–	1007.2	–	–
x1 = 0.0056	1008.9	–	1005.7	1003.8
x1 = 0.0063	–	1008.8	–	–
x1 = 0.0065	1010.5	1009	1007.2	1005.3
x1 = 0.0073	–	1010.6	1008.7	–
x1 = 0.0083	1013.6	1012	1010.2	1008.2
x1 = 0.0089	1014.7	1013.1	1011.2	1009.2
x1 = 0.0091	–	1013.7	–	–
x1 = 0.0102	–	1015.6	–	–
x1 = 0.0122	–	1018.9	–	–
x1 = 1	1185.4	1182.3	1178.5	–

CCCC[n+]1ccn(C)c1.O=S(=O)([O-])C(F)(F)F + O
mass density [kg/m3]
Details	293.15 K	298.15 K	303.15 K	308.15 K
x1 = 0.0002	999	–	996.3	–
x1 = 0.0005	1000.3	999.1	997.6	995.9
x1 = 0.0012	1002.8	–	1000	998.3
x1 = 0.0022	–	1005.3	–	–
x1 = 0.0024	–	1006.1	1004.5	1002.7
x1 = 0.0034	1011.1	–	1008.1	–
x1 = 0.0038	–	1010.9	–	–
x1 = 0.0048	1015.8	1014.4	1012.6	1010.7
x1 = 0.0058	1019.3	1017.8	1016.1	1014.1
x1 = 0.006	–	–	1016.9	1014.9
x1 = 0.0066	1022.2	1020.6	1018.8	1016.9
x1 = 0.0085	1028.6	1026.9	1025.1	1023
x1 = 0.0086	1028.7	1027	1025.1	1023.1
x1 = 0.0097	–	1030	–	–
x1 = 0.0125	1040.8	1038.9	1036.9	1034.6
x1 = 0.0148	–	1045.7	–	–
x1 = 0.0192	1059.5	–	–	1052.4
x1 = 0.024	1071.4	–	1066.5	1063.8
x1 = 0.0287	–	1079	–	–
x1 = 0.0289	–	1079.8	1077.2	1074.3
x1 = 0.0383	–	1097.6	–	–
x1 = 1	–	–	–	1289.7
